# Among all 52,000 compounds or so, about 1,700 (3.3%) were called active. Rule as the data show it: active = survival mostly below about 52% (no sharp cut-off); inactive = mostly above about 56%. The list shows a part of the results.
# System: Wild type
# Experiment: S. aureus survival, RN4220 and DeltatarO strains – OD600, teichoic acid synthesis inhibitors, primary screen (AID 463173)
# Conditions: S. aureus RN4220 wild type/DeltatarO growth, OD600, 18 h, stronger effect = lower value, screened at 18.75 µg/mL (by protocol)
row,Structure (SMILES),survival
1,CCCN1C(=O)C2(c3ccccc31)c1c(oc3ccccc3c1=O)C(=O)N2CCCOC(C)C (stereo not given),inactive: 79%
2,Cc1cccc(-c2nc(SCC(=O)N(C)c3ccccc3)c3c(=O)n(C)c(=O)n(C)c3n2)c1,inactive: 71%
3,O=C(c1ccco1)N1CCN(C(=O)c2cnn(-c3cccc(F)c3)c2C2CCNCC2)CC1,inactive: 70%
4,O=C(O)c1ccc(C2Nc3ccccc3-c3nnc(SCc4ccc(Cl)cc4)nc3O2)cc1 (stereo not given),inactive: 74%
5,O=C(c1cccc(Cl)c1)N1CCC(c2nc3ccccc3o2)CC1,inactive: 100%
6,O=C(Cn1c(=O)n2nc(-c3cccc(F)c3)nc2c2ccccc21)N1CCN(c2ccccc2F)CC1,inactive: 136%
7,COc1ccc(OC)c(NC(=O)c2c(C)oc3ncnc(N4CCOCC4)c23)c1,inactive: 159%
8,CC1CCN(C(=O)C(C)Sc2nc(-c3ccccc3)cc(C(F)(F)F)n2)CC1 (stereo not given),active: -7%
9,COc1ccc(S(=O)(=O)N(C)CC(=O)NCc2ccc3c(c2)OCO3)cc1,inactive: 93%
10,CCCCn1c(=O)nc2n(-c3ccc(F)cc3)c3ccccc3cc-2c1=O,inactive: 71%
11,NC(=O)C1CCN(C(=S)NCCc2ccccc2)CC1,inactive: 102%
12,CC(Sc1nc2c([nH]c3ccccc32)c(=O)n1-c1ccccc1)c1ccccc1 (stereo not given),inactive: 98%
13,Cc1ccc(-c2cc(C(F)(F)F)n3ncc(-c4ccc(Cl)cc4)c3n2)cc1,inactive: 92%
14,CCOC(=O)C1CCN(C(=O)c2ccc3c(c2)N=C(CC)c2cc(C)ccc2S3)CC1,inactive: 29%
15,O=C(CSc1nc2c(cnn2-c2ccc(F)cc2)c(=O)[nH]1)Nc1ccccc1C(F)(F)F,inactive: 114%
16,O=C(c1ccco1)N1CCCC(c2nc(-c3ccc(S(=O)(=O)NCc4ccccc4)cc3)no2)C1 (stereo not given),inactive: 111%
17,CC1CCc2c(sc(NC(=S)NC(=O)c3ccn(C)n3)c2C(N)=O)C1 (stereo not given),inactive: 112%
18,CCC(=O)N1CCc2cc(S(=O)(=O)CCC(=O)NCc3ccc(OC)cc3)ccc21,inactive: 118%
19,COc1cccc(CNC(=O)c2cc3ccc4cccnc4c3[nH]2)c1,inactive: 77%
20,Cc1occc1-c1nnc(SCC(=O)Nc2ccc3c(c2)OCO3)n1CC(C)C,inactive: 99%
21,COc1ccccc1NC(=O)C1=C(C)Nc2nc(SCc3cccc(F)c3)nn2C1c1ccc(C(=O)O)cc1 (stereo not given),inactive: 142%
22,COc1ccccc1N1CCN(C(=O)c2cc3c(=O)oc4ccccc4c3s2)CC1,inactive: 139%
23,CCOc1ccc(N2CC(c3nc4ccccc4n3CCOc3ccccc3)CC2=O)cc1 (stereo not given),inactive: 26%

row,Structure (SMILES),survival
1,CC(C)(C)c1cc(CN)c(C(=O)O)o1,inactive: 108%
2,O=C(CN1CCN(Cc2ccccc2)CC1)N1CCOCC1,inactive: 112%
3,COc1ccc(C2C=C(c3ccccc3)Nc3nc(NC(=O)/C=C/c4ccc(Cl)cc4)nn32)cc1 (stereo not given),inactive: 65%
4,Cc1nn(-c2ccccc2)c2sc(C(=O)Nc3cccc(Br)c3)cc12,inactive: 36%
5,Cc1nc2ncnn2c(C)c1CCC(=O)NCc1cccc(Cl)c1,inactive: 68%
6,Cc1ccc(NC(=O)c2cc(S(=O)(=O)N3CCCCC3)c[nH]2)cc1F,inactive: 97%
7,CCOC(=O)N1CCN(C(=O)Cn2ncc3c4ccccc4n(Cc4ccc(F)cc4)c3c2=O)CC1,inactive: 89%
8,Cc1ccc(Nc2nc(N)nc(CSc3nccn3C)n2)cc1,inactive: 94%
9,Cc1noc(C)c1S(=O)(=O)NCCc1csc2nc(-c3ccc(Cl)cc3)nn12,inactive: 72%
10,O=C(COc1ccc(F)cc1)Nc1ccc(Cl)c(-c2nc3ccccc3[nH]2)c1,inactive: 40%
11,COc1ccccc1-c1nnc(C2CCN(S(=O)(=O)c3ccc(F)c(C)c3)CC2)o1,inactive: 77%
12,O=C(Oc1cccc(-n2cnnn2)c1)C1CCCCC1,inactive: 100%
13,CC(CCC(=O)O)C1CCC2C3C(O)CC4CC(O)CCC4(C)C3CC(O)C12C (stereo not given),inactive: 106%
14,CCCCc1nn2c(=O)cc(COC(=O)c3ccccc3NC(=O)c3cccc(C)c3)nc2s1,inactive: 55%
15,Cc1cccc(NC(=O)c2c(C)oc3ncnc(N4CCCCC4)c23)c1C,inactive: 124%
16,OCC(O)CN(c1ccccc1)c1ccccc1 (stereo not given),inactive: 113%
17,CC(=O)Nc1cccc(-c2cn3cccnc3n2)c1,inactive: 73%
18,COc1ccc2nc(NC(=O)c3cc(=O)c4cc(C)c(C)cc4o3)sc2c1,inactive: 81%
19,Cc1nc(-c2ccc(F)cc2)sc1CCNC(=O)c1ccc(C(C)(C)C)cc1,inactive: 73%
20,Cc1ccc(Cl)cc1NS(=O)(=O)c1ccc(N2CCCCS2(=O)=O)cc1,inactive: 124%
21,Cc1ccc(C(=O)NCC(c2cccnc2)N2CCc3ccccc3C2)cc1C (stereo not given),inactive: 84%
22,CCOc1ccc(C(=O)c2c(N)c(-c3nc(-c4ccc(OCC)cc4)cs3)c3ccccn23)cc1,inactive: 103%
23,Nc1c(C(=O)c2ccccc2)sc(Nc2ccc(Cl)c(Cl)c2)c1C(=O)Nc1ccccc1,inactive: 75%

row,Structure (SMILES),survival
1,Cc1ccc2c(c1)N(C(=O)N1CCC(C(=O)NCc3ccccc3F)CC1)CC(C)O2 (stereo not given),inactive: 101%
2,Cc1cccc(NC(=O)c2sc(-n3nc(C)c(CCC(C)C)c3C)nc2C)c1,inactive: 89%
3,CCOC(=O)CSc1nc2c(sc3ccccc32)c(=O)n1Cc1ccc(OC)cc1,inactive: 73%
4,N#Cc1ccccc1OCC(=O)N1CCN(c2ccccc2F)CC1,inactive: 116%
5,Cc1cc(=O)[nH]c(Nc2nc3ccccc3[nH]2)n1,inactive: 118%
6,COc1cc2ccccc2cc1C(=O)Nc1ccc2oc(-c3cccc(C)c3)nc2c1,active: 6%
7,COc1ccc(CCNc2nc3cc(OC)c(OC)cc3c3nc(-c4cccnc4)nn23)cc1OC,inactive: 121%
8,COc1ccc(OC)c(NC(=O)N2CCN(Cc3nc4ccc(C)cc4o3)CC2)c1,inactive: 71%
9,O=S(=O)(c1ccccc1)c1nc(-c2ccccc2F)oc1N1CCOCC1,inactive: 77%
10,COc1ccc(-c2cn3c(n2)sc2cc(C(=O)Nc4ccc(C)cc4C)ccc23)cc1,inactive: 87%
11,C=CCNC(=O)Nc1c[nH]c2ccccc2c1=O,inactive: 111%
12,COc1ccc(-n2c3c(cc(-c4nc(-c5ccc(Cl)cc5)cs4)c2=O)C(=O)CC(C)(C)C3)cc1Cl,inactive: 72%
13,CCOc1ccc(NC(=O)CCSc2nc(-c3ccc4c(c3)OCO4)cc(C(F)(F)F)n2)cc1,inactive: 72%
14,O=S(=O)(NCCN1CCOCC1)c1cccc(C(F)(F)F)c1,inactive: 105%
15,CCN1C(=O)c2ccccc2Sc2ccc(NC(=O)c3ccc(C#N)cc3)cc21,inactive: 73%
16,COC(=O)Nc1ccc2c(c1)N(C(=O)CCN1CCOCC1)c1ccccc1S2,inactive: 106%
17,Cc1ccccc1NCc1nc2ccccc2n1CCOc1ccccc1,active: -20%
18,CN(C(=O)Cn1nnc(-c2ccc(S(C)(=O)=O)cc2)n1)c1ccccc1,inactive: 74%
19,Cc1c(C(=O)N(C)C)sc2c1c(=O)n(-c1ccccc1C(F)(F)F)c(=O)n2Cc1cccc(F)c1,inactive: 70%
20,COc1ccc(C(=O)Nc2nc3c(s2)Cc2cc(OC)ccc2-3)cc1,inactive: 72%
21,CC(C)C(c1nnnn1C1CCCC1)N1CCOCC1 (stereo not given),inactive: 98%
22,COc1ccc(NC(=O)CSc2oc(-c3ccco3)nc2S(=O)(=O)c2ccccc2)c(OC)c1,inactive: 135%
23,O=C(Nc1ccc(Cl)cc1)c1cc(S(=O)(=O)NC2CCCCCC2)ccc1F,inactive: 97%

row,Structure (SMILES),survival
1,CCc1ccc(S(=O)(=O)c2nnn3c2nc(NCc2ccccc2)c2cc(Cl)ccc23)cc1,inactive: 103%
2,CCN(CC)S(=O)(=O)c1cccc(C(=O)NCc2ccccc2)c1,inactive: 101%
3,CCOc1ccc(C(=O)Nc2ccc3c(c2)OCCO3)cc1Br,inactive: 64%
4,CCCNC(=O)C(Cc1ccccc1)NS(=O)(=O)c1ccc2c(c1)c(=O)n(C)c(=O)n2C (stereo not given),inactive: 79%
5,COc1ccccc1-c1nc2cc(NC(=O)c3ccccc3Cl)ccc2o1,inactive: 68%
6,O=C(CN1CCN(Cc2ccccc2Cl)C1=O)NCCc1ccc(Cl)cc1,inactive: 70%
7,COc1cc(NS(=O)(=O)c2ccc(-c3cc(C)no3)cc2)cc(OC)c1,inactive: 124%
8,Cc1ccc(-c2csc3ncnc(Nc4ccc(C(=O)O)cc4)c23)cc1,inactive: 129%
9,COc1ccc2c(c1)CCc1c(C(=O)Nc3ccc(OC)cc3OC)noc1-2,inactive: 143%
10,COc1ccccc1NC(=O)c1sc2nc3n(c(=O)c2c1C)N=C(c1cccc(Br)c1)CS3,inactive: 69%
11,CCc1ccc(-n2c(SCC(=O)NCC(C)C)nnc2-c2ccncc2)cc1,inactive: 100%
12,Cc1nc(S(=O)(=O)N2CCN(c3ccccc3F)CC2)cn1C,inactive: 121%
13,Cn1c(C(=O)OCC(=O)NCc2cccs2)cc2sccc21,inactive: 111%
14,COc1ccc(Cn2c(C(=O)O)c(CNC3CCCCC3)c3ccc(C)cc32)cc1,inactive: 56%
15,COC(=O)c1ccc2c(c1)N(Cc1ccccc1)C(=O)c1ccccc1S2(=O)=O,inactive: 93%
16,COc1ccc(Cl)cc1NC(=O)CN1Cc2ccccc2C1=O,inactive: 73%
17,O=C(O)c1ccc(NC(=O)c2ccc(Br)c(S(=O)(=O)N3CCCC3)c2)cc1,inactive: 70%
18,CCOc1ccc(NC(=O)Cc2c[nH]c3ccccc23)cc1,inactive: 71%
19,Nc1c(-c2nc(-c3ccc4c(c3)OCO4)cs2)c2ccccn2c1C(=O)c1ccc(Cl)cc1,inactive: 121%
20,CCCC12CN3CC(C)(CN(C1)C3c1ccc(OCc3ccccc3)cc1)C2=O (stereo not given),inactive: 94%
21,Cc1cccc(CNC(=O)CN2C(=O)CCn3nc(-c4cn(C)c5ccccc45)cc32)c1,inactive: 123%

# From PubChem BioAssay AID463173 (ICCB-Longwood Screening Facility, Harvard Medical School, 2010)
